Experimental data from US12138316B2, “Anti-B7H3 antibody-drug conjugate and use thereof” (Duality Biologics (Suzhou) Co., Ltd., priority 2023, dated 2024).

Tests used:
human 2IgB7H3 = target: T1, human 2IgB7H3 (Homo sapiens, UniProt Q5ZPR3); assay: Binding affinity for human 2IgB7H3 (SPR)
T1 construct: His tag; purchased ACROBiosystems B73-H52E2
T1 sequence (Q5ZPR3 29-316 isoform Q5ZPR3-2 limits assumed): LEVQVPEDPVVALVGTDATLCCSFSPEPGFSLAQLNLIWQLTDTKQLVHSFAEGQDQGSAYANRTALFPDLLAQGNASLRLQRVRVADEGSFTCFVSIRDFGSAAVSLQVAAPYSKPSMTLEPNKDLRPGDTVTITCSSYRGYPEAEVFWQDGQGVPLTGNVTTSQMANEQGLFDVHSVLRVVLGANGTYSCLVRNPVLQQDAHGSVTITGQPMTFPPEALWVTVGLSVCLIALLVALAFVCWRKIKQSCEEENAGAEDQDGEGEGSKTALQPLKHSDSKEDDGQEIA
Method: (§1) The affinity of antibodies for human 2IgB7H3 was determined using surface plasmon resonance (SPR). The affinity of antibodies for human 2IgB7H3 was determined by Biacore 8K. An activator was prepared by mixing 400 mM EDC and 100 mM NHS (GE) immediately prior to injection into the channel. The CM5 sensor chip was activated for 420 seconds with the activator. Goat anti-human Fc IgG (30 μg/mL in 10 mM NaAc, pH 4.5) was then injected into the channel at a flow rate of 10 μL/min for 420 seconds. The chip was deactivated by 1 M ethanolamine hydrochloric acid. The antibodies diluted in running buffer (1×HBS-EP+) were injected into the channel at a flow rate of 10 μL/min for 30 seconds. Seven concentrations (500 nM, 250 nM, 125 nM, 62.5 nM, 31.25 nM, 15.625 nM, and 7.813 nM) of analyte human 2IgB7H3 were injected sequentially into the channel at a flow rate of 30 μL/min for an association phase of 120 seconds, followed by dissociation of 300 seconds. Glycine (10 mM, pH 1.5) was injected as regeneration buffer after the dissociation phase.
(§2) The sensorgrams for the reference channel and the buffer channel were subtracted from the test sensorgrams. The experimental data were fitted with a 1:1 binding model. The molecular weight of the human 2IgB7H3 used in the calculation was 25.2 kDa.

human B7H3 = target: T2, human B7H3 (Homo sapiens, UniProt Q5ZPR3); assay: FACS binding to human B7H3-expressing cells MCF-7
T2 construct: MCF-7 cells expressing human full-length B7H3; host or cells: MCF-7
T2 sequence (Q5ZPR3 29-534): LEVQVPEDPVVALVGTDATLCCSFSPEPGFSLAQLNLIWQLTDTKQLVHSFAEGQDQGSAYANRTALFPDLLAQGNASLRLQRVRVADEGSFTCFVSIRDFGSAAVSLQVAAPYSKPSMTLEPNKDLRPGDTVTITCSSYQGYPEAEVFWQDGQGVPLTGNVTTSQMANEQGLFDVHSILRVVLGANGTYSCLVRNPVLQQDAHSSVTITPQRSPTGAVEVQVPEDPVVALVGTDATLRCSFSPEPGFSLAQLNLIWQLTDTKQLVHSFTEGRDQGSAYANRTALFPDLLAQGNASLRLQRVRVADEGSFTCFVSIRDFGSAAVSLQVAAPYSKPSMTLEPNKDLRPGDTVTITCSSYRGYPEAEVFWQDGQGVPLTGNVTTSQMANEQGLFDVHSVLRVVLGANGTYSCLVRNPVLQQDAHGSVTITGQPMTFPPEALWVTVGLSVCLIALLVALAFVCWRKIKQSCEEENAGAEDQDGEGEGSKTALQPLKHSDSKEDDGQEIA
Method: (§3) FACS was used to detect the binding of antibodies to human B7H3. This method allows quantitative analysis and identification of specific molecules expressed on the surface of living cells. Unlabeled cells were used as a control to set a threshold before the assay, and the percentage change for each group that exceeded the fluorescence intensity threshold was analyzed. MCF-7 cells expressing human full-length B7H3 (1×10^5 cells/well) were incubated with various concentrations of antibodies (3.16-fold serially diluted with 1×DPBS/1% BSA from 50 nM to 0.0005 nM) in a volume of 100 μL/well in a refrigerator set to 4° C. for 1 h. Anti-human B7H3 reference antibody enoblituzumab (MacroGeneics) was used as a positive control. Human IgG1 isotype antibody was used as a negative control. After washing the cells with 1×DPBS/1% BSA, Alexa 647 goat anti-human antibody (diluted in a 1:500 ratio in 1×DPBS/1% BSA) was added. The cells were incubated in a refrigerator set to 4° C. for 0.5 h in the dark. The mean fluorescence intensity (MFI) of the cells was measured by a flow cytometry and analyzed by FlowJo. EC50 values were calculated by four-parameter non-linear regression analysis using GraphPad Prism 7 software.

cynomolgus monkey B7H3 [1] = assay: FACS binding to cynomolgus monkey B7H3-transfected stable cell pool
Method: as §3, with “to cynomolgus monkey” for “to human”, “B7H3. FlpinCHO” for “B7H3. This method allows quantitative analysis and identification of specific molecules expressed on the surface of living cells. Unlabeled”, “were transfected with cynomolgus monkey B7H3 (W3XX088-FlpinCHO.cProl.pool) (1×10^5 cells/well),” for “were used as a control to set a threshold before the assay,”, “the transfected” for “the percentage change for each group that exceeded the fluorescence intensity threshold was analyzed. MCF-7”, “cells” for “cells expressing human full-length B7H3 (1×10^5 cells/well)”

[2] = test system: human B7H3-expressing cells MCF-7; assay: Internalization test (HCS) in MCF-7 cells; assay type: cell-based
Method: Antibody internalization was determined by operetta CLS (PerkinElmer), a high-content imaging and analysis system that can collect and analyze images of samples at high speed and high sensitivity. MCF-7 cells expressing human full-length B7H3 (1.5×10^4 cells/well) were seeded into a 96-well clear bottom black plate pre-coated with 8 μg/mL poly-D-lysine. After incubation in an incubator set to 37° C., 5% CO2 overnight, various concentrations of the antibodies (3.16-fold serially diluted with 1×DPBS/1% BSA from 50 nM to 0.0005 nM) were incubated in a volume of 100 μL/well in a refrigerator set to 4° C. for 2 h. Anti-human B7H3 reference antibody enoblituzumab (MacroGeneics) was used as a positive control. Human IgG1 isotype antibody was used as a negative control. After washing the cells with 1×DPBS/1% BSA, Alexa 647 goat anti-human antibody (diluted in a 1:500 ratio in 1×DPBS/1% BSA) was added. The cells were incubated in a refrigerator set to 4° C. for 1 h in the dark. The cells were then washed once and resuspended in 1×DPBS/1% BSA at 37° C. for 2 h. […] The mean fluorescence intensity (MFI) of the cells was measured and analyzed by operetta CLS. EC50 values were calculated by four-parameter non-linear regression analysis using GraphPad Prism 7 software.

human 4IgB7H3 = target: T3, human 4IgB7H3 (Homo sapiens, UniProt Q5ZPR3); assay: Binding affinity for human 4IgB7H3 (SPR)
T3 construct: Uniprot ID: Q5ZPR3, amino acids 29-461; made in house; host or cells: Expi293F
T3 sequence (Q5ZPR3 29-461): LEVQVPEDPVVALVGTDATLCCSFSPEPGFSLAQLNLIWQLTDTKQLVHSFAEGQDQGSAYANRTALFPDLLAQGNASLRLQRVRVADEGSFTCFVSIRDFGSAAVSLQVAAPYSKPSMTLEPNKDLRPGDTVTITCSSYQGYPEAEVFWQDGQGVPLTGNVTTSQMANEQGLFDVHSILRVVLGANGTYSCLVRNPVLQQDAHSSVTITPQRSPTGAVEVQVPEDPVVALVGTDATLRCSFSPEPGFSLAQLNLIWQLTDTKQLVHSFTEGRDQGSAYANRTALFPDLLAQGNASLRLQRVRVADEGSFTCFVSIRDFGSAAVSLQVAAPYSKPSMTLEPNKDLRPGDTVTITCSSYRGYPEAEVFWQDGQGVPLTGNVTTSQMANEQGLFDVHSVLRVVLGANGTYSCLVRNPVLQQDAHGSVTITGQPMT
Method: The affinity of antibodies for human 4IgB7H3 was determined using surface plasmon resonance (SPR). The affinity of antibodies for human 4IgB7H3 was determined by Biacore 8K. An activator was prepared by mixing 400 mM EDC and 100 mM NHS (GE) immediately prior to injection into the channel. The CM5 sensor chip was activated for 420 seconds with the activator. Goat anti-human Fc IgG (30 μg/mL in 10 mM NaAc, pH 4.5) was then injected into the channel at a flow rate of 10 μL/min for 420 seconds. The chip was deactivated by 1 M ethanolamine hydrochloric acid. The antibodies diluted in running buffer (1×HBS-EP+) were injected into the channel at a flow rate of 10 μL/min for 30 seconds. Seven concentrations (100 nM, 50 nM, 25 nM, 12.5 nM, 6.25 nM, […], and 1.563 nM) of analyte human 4IgB7H3 were injected sequentially into the channel at a flow rate of 30 μL/min for an association phase of 180 seconds, followed by dissociation of 3600 seconds. Glycine (10 mM, pH 1.5) was injected as regeneration buffer after the dissociation phase.
The sensorgrams for the reference channel and the buffer channel were subtracted from the test sensorgrams. The experimental data were fitted with a 1:1 binding model. The molecular weight of the human 4IgB7H3 used in the calculation was 47.8 kDa.

cynomolgus monkey B7H3 [3] = assay: Binding affinity for cynomolgus monkey B7H3 (SPR)
Method: as §1, with “cynomolgus monkey B7H3” for “human 2IgB7H3”, “Seven concentrations (500 nM, 250 nM, 125 nM, 62.5 nM, 31.25 nM, 15.625 nM, and 7.813 nM) of analyte human 2IgB7H3 were injected sequentially into the channel at a flow rate of 30 μL/min for an association phase of 120 seconds, followed by dissociation of 300 seconds.” left out
as §2, with “data for 6 analyte concentrations (50 nM, 25 nM, 12.5 nM, 6.25 nM, 3.125 nM, and 1.563 nM)” for “data”, “cynomolgus monkey B7H3” for “human 2IgB7H3”, “49” for “25.2”

ka (human 2IgB7H3): 235000 M⁻¹ s⁻¹ | kd (dissociation rate constant) (human 2IgB7H3): 0.0136 s⁻¹ | Maximum MFI (human B7H3): 19800 | ka (human 4IgB7H3): 657000 M⁻¹ s⁻¹ | kd (dissociation rate constant) (human 4IgB7H3): 3.39e-05 s⁻¹ | ka (cynomolgus monkey B7H3 [3]): 521000 M⁻¹ s⁻¹ | kd (dissociation rate constant) (cynomolgus monkey B7H3 [3]): 2.94e-05 s⁻¹
B1: W301088-1.145.16-xIgG1KV320: chimeric anti-B7H3 human IgG1 LALA antibody, heavy chain SEQ ID NO: 14, light chain SEQ ID NO: 15 (antibody)
heavy: DVQLQESGPGLVKPSQSLSLTCTVTDYSITGDYAWNWIRQFPGNKLEWMGYISYSGSTSYNPSLQSRISITRDTSKNQFFLQLNSVTSEDTATYFCARSLGRRWYFVVWGAGTTVTVSAASTKGPSVFPLAPSSKSTSGGTAALGCLVKDYFPEPVTVSWNSGALTSGVHTFPAVLQSSGLYSLSSVVTVPSSSLGTQTYICNVNHKPSNTKVDKRV[not shown - human IgG1 Fc with changes]
light: DIVMTQSPSSLAMSVGQKVTMSCKSSQSLLNSSNQKNYLAWYQQKPGQSPKLLIYFASTRESGVPDRFIGSGSGTDFTLTISSVQAEDLTDYFCQQHYSAPWTFGGGTKLEIKRTVAAPSVFIFPPSDEQLKSGTASVVCLLNNFYPREAKVQWKVDNALQSGNSQESVTEQDSKDSTYSLSSTLTLSKADYEKHKVYACEVTHQGLSSPVTKSFNRGEC
Maximum MFI (cynomolgus monkey B7H3 [1]): 67100 | Antibody internalization Maximum MFI [2]: 57180
